Hit rate of the full screen: of about 310,000 compounds, about 18,000 (5.8%) were called active. Inconclusive results, whose numbers are uncertain, are shown with a selection of clear calls. Calls come from the whole dose curve; as a rule, active = well fitted inhibition curve with a large enough effect; inconclusive = small, poorly fitted or top-dose-only effect, or another doubt; inactive = no such curve, though single readings can be large or run the other way. No potency is given beside an inconclusive call; the fits are too rough.
Assay: Primary qHTS for delayed death inhibitors of the malarial parasite plastid, 48 hour incubation
Conditions: P. falciparum luciferase growth in erythrocytes; series mostly up to 28.7 µM; activity change, negative = inhibition: at the top concentration
Summary of the method: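 Luciferase-expressing parasites in RBCs, 2% Hct / 0.1% parasitemia final; RPMI 1640 + 0.5% Albumax; 37 C, 5% CO2, one generation; luminescence read-out, lower signal = inhibition.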
% is set by controls: 0 for no effect and ±100 for the full control effect; potency is the fitted concentration of half-maximal effect; tags give direction and shape of the fitted curve.

| Compound | Potency | activity change, negative = inhibition |
| --- | --- | --- |
| Cc1ccc(CSCC(=O)Nc2ccc(N3CCOCC3)cc2N2CCOCC2)cc1 | active: 5.22 µM | – |
| CC(Oc1ccc(Cl)cc1Cl)C(=O)NNC(=O)C(=O)N1CCCCC1 (stereo not drawn) | – | inactive: 4.35% |
| Nc1ccccc1NC1=CC(=O)CC(c2ccco2)C1 (stereo not drawn) | inconclusive [inhibitor, single point] | – |
| CCCCn1nc(C(=O)OCC(=O)Nc2sccc2C(N)=O)c2ccccc2c1=O | inconclusive [inhibitor, single point] | – |
| CCCOc1ccc(CSCCNC(=S)Nc2ccccc2)cc1 | active: 13.1 µM | – |
| COc1ccc2c(c1)[C@H]1[C@H](CO2)[C@H](c2ccccc2)[C@]2(C)C(=O)Nc3cc(Cl)ccc3C(=O)N12 | active: 5.22 µM | – |
| O=C(NCc1ccccc1CN1CCCC1)C1CCN(S(=O)(=O)c2ccc(Cl)cc2)CC1 | inconclusive [inhibitor, single point] | – |
| COc1cccc(NC(=S)N(CCC(C)C)C(C)c2ccncc2)c1 (stereo not drawn) | inconclusive [inhibitor, partial curve, poor fit] | – |
| CC(=O)Nc1ccc(NS(=O)(=O)c2ccc3c(c2)NC(=O)CC(=O)N3)cc1 | – | inactive: 19.7% |
| O=C(c1nc2ccccn2c1CNCCn1ccc2ccccc21)N1CCOCC1 | inconclusive [inhibitor, single point] | – |
| CCN(CC(=O)NCc1cccs1)C(=O)c1ccc(S(=O)(=O)Nc2ccccc2Cl)cc1 | inconclusive [inhibitor, single point] | – |
| Fc1ccc(C(OCCN2CCN(CCCc3ccccc3)CC2)c2ccc(F)cc2)cc1 | active: 12 µM | – |
| CCN(CC(=O)NCc1ccc(F)cc1)Cc1nc2cc(Cl)ccc2c(=O)[nH]1 | inconclusive [inhibitor, single point] | – |
| CCc1cccc(NC(=O)C2CCCN(S(=O)(=O)c3cccs3)C2)c1 (stereo not drawn) | inconclusive [inhibitor, partial curve, poor fit] | – |
| CCOC(=O)c1nn(-c2ccc(C)cc2)c(=O)c2c(N)scc12 | inconclusive [inhibitor, single point] | – |
| O=C(c1cc2ccccc2cc1O)N1CCN(c2ccccc2O)CC1 | inconclusive [inhibitor, partial curve, poor fit] | – |
| CCCc1cc(=O)oc2cc(C)cc(OCC(=O)NCCCN3CCCC3=O)c12 | inconclusive [inhibitor, full curve] | – |
| O=C(c1ccc(Cn2c(=S)[nH]c3cc4c(cc3c2=O)OCO4)cc1)N1CCN(c2ccccc2)CC1 | inconclusive [inhibitor, single point] | – |

— PubChem BioAssay AID504832 (National Center for Advancing Translational Sciences (NCATS), 2011)
